# Experimental data reported in PubChem BioAssay AID504332 (National Center for Advancing Translational Sciences (NCATS), 2011).
# About 31,000 (8.9%) of roughly 350,000 compounds were called active. This list was built around the results that the source calls inconclusive (neither active nor inactive); the mix of calls is not that of the screen. Calls come from the whole dose curve; as a rule, active = well fitted inhibition curve with a large enough effect; inconclusive = small, poorly fitted or top-dose-only effect; inactive = no such curve, though single readings can be large or run the other way. Potencies of inconclusive entries are doubtful fits and often do not repeat.
# Target: Histone-lysine N-methyltransferase EHMT2 (Homo sapiens) (UniProt Q96KQ7)
# Sequence of UniProt Q96KQ7 (Q96KQ7 whole entry, looked up): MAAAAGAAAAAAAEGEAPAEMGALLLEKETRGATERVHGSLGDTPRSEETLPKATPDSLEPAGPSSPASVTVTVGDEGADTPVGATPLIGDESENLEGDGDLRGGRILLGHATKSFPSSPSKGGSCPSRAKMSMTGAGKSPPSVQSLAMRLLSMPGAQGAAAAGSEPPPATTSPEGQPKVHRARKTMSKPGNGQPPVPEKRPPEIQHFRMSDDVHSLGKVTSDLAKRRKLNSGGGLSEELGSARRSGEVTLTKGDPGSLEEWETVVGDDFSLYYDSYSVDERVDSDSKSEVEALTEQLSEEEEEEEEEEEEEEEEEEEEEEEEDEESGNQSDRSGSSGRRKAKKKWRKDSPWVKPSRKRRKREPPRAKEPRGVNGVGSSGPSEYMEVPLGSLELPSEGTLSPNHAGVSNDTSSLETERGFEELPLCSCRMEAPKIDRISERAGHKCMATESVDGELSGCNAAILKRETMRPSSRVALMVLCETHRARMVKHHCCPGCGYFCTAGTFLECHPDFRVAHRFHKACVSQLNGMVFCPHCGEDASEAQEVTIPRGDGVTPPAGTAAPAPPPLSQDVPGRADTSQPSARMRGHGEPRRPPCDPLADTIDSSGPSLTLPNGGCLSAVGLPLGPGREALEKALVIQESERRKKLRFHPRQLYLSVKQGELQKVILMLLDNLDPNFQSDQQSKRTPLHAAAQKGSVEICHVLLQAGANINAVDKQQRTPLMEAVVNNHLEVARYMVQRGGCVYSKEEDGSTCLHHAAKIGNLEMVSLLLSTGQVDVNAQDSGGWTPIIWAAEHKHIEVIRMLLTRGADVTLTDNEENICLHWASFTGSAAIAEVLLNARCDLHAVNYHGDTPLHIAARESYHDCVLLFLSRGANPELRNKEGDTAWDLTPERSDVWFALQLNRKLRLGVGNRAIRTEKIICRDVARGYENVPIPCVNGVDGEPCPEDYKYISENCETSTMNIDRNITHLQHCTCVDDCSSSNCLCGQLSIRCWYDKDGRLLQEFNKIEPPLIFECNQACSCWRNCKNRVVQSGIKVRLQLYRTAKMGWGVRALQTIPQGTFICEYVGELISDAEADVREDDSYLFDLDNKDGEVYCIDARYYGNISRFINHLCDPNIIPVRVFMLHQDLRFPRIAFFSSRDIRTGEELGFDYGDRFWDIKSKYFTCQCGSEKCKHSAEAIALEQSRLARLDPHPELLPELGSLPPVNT
# Assay: qHTS Assay for Inhibitors of Histone Lysine Methyltransferase G9a; note: nearly all actives have a fitted effect of over 75% in size
# Details: G9a H3K9 monomethylation, AlphaScreen, 2 h; activity, negative = inhibition: at 59 µM (top of the series) unless noted
# In short: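 G9a (20 nM) preincubated 15 min RT with compounds, then 500 nM biotinylated H3K9 peptide and 20 uM SAM added; 2 h RT reaction. Monomethyl-H3K9 product detected by AlphaScreen with anti-H3K9me1 antibody, streptavidin donor and anti-rabbit IgG acceptor beads.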
# % is set by controls: 0 for no effect and ±100 for the full control effect; potency is the fitted concentration of half-maximal effect; tags give direction and shape of the fitted curve.
SMILES,"activity, negative = inhibition",Potency
O=C(CN1C(=O)c2ccccc2C1=O)Nc1ccccc1,inactive: 17.8% [at 102 µM],
O=C(CN1C(=O)NC2(CCCCC2)C1=O)Nc1ccc2c(c1)CCC2,,"inconclusive: 31.6 µM [inhibitor, partial curve, poor fit]"
Cc1ccccc1C(=O)Nc1c(C)nc2ccccn2c1=O,inactive: 12.8%,
Cc1nc2ccc(S(=O)(=O)Nc3cccc(-c4nc5cccnc5s4)c3)cc2s1,,"inconclusive: 89.1 µM [inhibitor, single point]"
Cc1ccc(Oc2ccc(S(=O)(=O)Nc3ccc(C(=O)O)cc3)cc2)cc1,,"inconclusive: 6.31 µM [inhibitor, single point]"
CCc1nnc(NC(=O)CN2CCN(Cc3ccccc3Cl)CC2)s1,,"inconclusive: 89.1 µM [inhibitor, single point]"
COc1cccc(NC(=O)CN(C)C(C)C(=O)NC(C)c2ccc(Cl)cc2Cl)c1 (stereo unspecified),,active: 28.2 µM
COc1ccc(-c2ccc(SCC(=O)c3ccccc3)nn2)cc1OC,,active: 50.1 µM
CCC1CCCCN1C(=O)CSc1nnc(-c2ccco2)o1 (stereo unspecified),,"inconclusive: 25.1 µM [inhibitor, single point]"
CCCc1cc(C(=O)OC)c(NC(=O)CCCC(=O)O)s1,inactive: -8.26% [at 102 µM],
CN(c1ccc(OC(=O)CN2C(=O)NC3(CCCC3)C2=O)cc1)S(=O)(=O)c1ccccc1,inactive: -44.1% [at 102 µM],
CN(C)S(=O)(=O)c1ccc(N/C=C(\[N+](=O)[O-])S(=O)(=O)c2ccccc2)cc1,,"inconclusive: 89.1 µM [inhibitor, single point]"
CCOC(=O)C1(Cc2ccccc2Cl)CCN(C(=O)CCn2ccnc2C)CC1,,"inconclusive: 0.447 µM [inhibitor, partial curve, poor fit]"
CCc1ccc(-n2c(=S)sc3c(=O)n(-c4ccccc4C)c(SCC(=O)O)nc32)cc1,inactive: -10% [at 102 µM],
Cc1ccc(S(=O)(=O)N(CC(=O)Nc2ccc(Cl)cc2)C(=O)N2CCN(C)CC2)cc1,inconclusive: -55.2% [inhibitor] [at 2.33 µM],
O=C(COc1ccccc1Cl)N1CCN(c2ccccn2)CC1,,"inconclusive: 25.1 µM [inhibitor, partial curve, poor fit]"
O=C(COC(=O)c1cnccn1)c1ccccc1,inactive: -7.51% [at 102 µM],
CC(C)(C)NC(=O)c1nn2c(C(F)(F)F)cc(-c3ccccc3)nc2c1Br,inactive: 45.9% [at 0.501 µM],
Cc1ccc(NC(=O)Cn2c(=O)n(Cc3nc(-c4ccccc4)no3)c(=O)c3ccccc32)cc1C,,"inconclusive: 3.55 µM [inhibitor, partial curve, poor fit]"
O=[N+]([O-])c1ccc(N=Nc2ccc(O)cc2O)cc1,,active: 39.8 µM
CC(=O)N1CCn2c3ccc(C)cc3c3cccc1c32,inactive: 3.85%,
CCOc1ccc(C2/C(=C(/O)c3ccc(F)cc3)C(=O)C(=O)N2CCCN(C)C)cc1 (stereo unspecified),,"inconclusive: 7.08 µM [inhibitor, single point]"
CCC1(C)Cc2c(sc3nn[nH]c(=O)c23)CO1 (stereo unspecified),,active: 39.8 µM

SMILES,"activity, negative = inhibition",Potency
O=C(NCCC(=O)N(Cc1ccco1)Cc1cccs1)c1ccc([N+](=O)[O-])cc1,,"inconclusive: 50.1 µM [inhibitor, partial curve]"
O=C(CCNC(=O)Cn1ccc2ccccc2c1=O)NCc1ccc(F)cc1Cl,inactive: -4.81% [at 102 µM],
O=[N+]([O-])c1ccc(C23CC4CC(CC(O)(C4)C2)C3)cc1,inactive: -2.65%,
O=[N+]([O-])c1ccc(O)c(Nc2ncnc3ccc(Br)cc23)c1,,"inconclusive: 39.8 µM [inhibitor, full curve]"
Nc1ccccc1OCCOCCOc1ccccc1N,,"inconclusive: 44.7 µM [inhibitor, full curve, poor fit]"
CC(C(=O)NCc1ccc(F)cc1)c1ccc([N+](=O)[O-])cc1 (stereo unspecified),,"inconclusive: 56.2 µM [inhibitor, partial curve, poor fit]"
CCOc1ccc(S(=O)(=O)Nc2cccc(C(=O)NCC(c3ccco3)N3CCCC3)c2)cc1 (stereo unspecified),inactive: 6.78% [at 12.7 µM],
COc1ccc(C2C(C(C)=O)=C(C)Nc3ncnn32)cc1 (stereo unspecified),inactive: 4.15% [at 102 µM],
CCCCCN1CC(=O)N2C(C)c3[nH]c4ccccc4c3C[C@H]2C1=O (stereo partly specified),,"inconclusive: 89.1 µM [inhibitor, single point]"
COc1ccccc1NNC(=O)c1cc(C(C)(C)C)nn1Cc1ccccc1,,active: 12.6 µM
C[C@@]12CCC3[C@@](CCC4[C@@]3(C)CCC[C@@]4(C)C(=O)N3CCCCC3)(CC1=O)C2 (stereo partly specified),inactive: 10.1% [at 0.501 µM],
Cc1cc2ncn(C3CC(=O)N(Cc4ccc(N5CCCC5=O)cc4)C3=O)c2cc1C (stereo unspecified),,"inconclusive: 20 µM [inhibitor, partial curve, poor fit]"
Cc1ccc(-c2nn(-c3cccc(F)c3)cc2CN2CCN(c3ccccn3)CC2)o1,,"inconclusive: 15.8 µM [inhibitor, partial curve, poor fit]"
CCC(Oc1ccccc1)C(=O)Nc1ccccc1C(=O)N1CCN(C)CC1 (stereo unspecified),,"inconclusive: 89.1 µM [inhibitor, single point]"
COc1ccc(C(=O)NNc2ncnc3c2cnn3-c2ccc(C)c(Cl)c2)cc1,inactive: 14.3%,
FC(F)Oc1ccc(/C=N/n2c(Cc3ccc(Br)cc3)n[nH]c2=S)cc1,,active: 2.82 µM
COc1ccc(NC(=O)c2c(NC(=O)c3ccncc3)sc3c2CCC(C(C)(C)C)C3)cc1 (stereo unspecified),,"inconclusive: 28.2 µM [inhibitor, single point]"
Cc1occc1C(=O)N/N=C/c1ccc(Br)s1,inactive: 6.72% [at 102 µM],
COc1cccc(Cn2c(=O)n(CCc3ccccc3)c(=O)c3c2c2cc(OC)ccc2n3C)c1,,"inconclusive: 4.47 µM [inhibitor, partial curve, poor fit]"
CCOc1ccc2nc(NC(=O)C(CCSC)NS(=O)(=O)c3cccs3)sc2c1 (stereo unspecified),,"inconclusive: 89.1 µM [inhibitor, single point]"
CCOc1ccc(N(CC(=O)Nc2ccccc2CC)S(=O)(=O)c2c(C)noc2C)cc1,inactive: 3.49%,
Nc1ncnc2c1cnn2C1CCCCC1,inactive: 2.04% [at 102 µM],
Cc1ccnc(SCC(=O)N2CCC(C(N)=O)CC2)n1,,"inconclusive: 89.1 µM [inhibitor, single point]"
